# Data published in paper PMC6919601, “Identification of Plasmodium dipeptidyl aminopeptidase allosteric inhibitors by high throughput screening” (PLoS ONE, 2019).
# Among all 110,000 compounds or so, about 230 (0.21%) showed an effect of 50% or more. Some of the results follow.
# Target: DPAP1 (Plasmodium falciparum, UniProt Q8IIJ9)
# Test: primary screen, percent inhibition; read by cleavage of a fluorogenic dipeptide substrate; higher = more effect of the substance
# Parameters: species or system P. falciparum D10 trophozoite lysates; single well
# 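Also: 30 min substrate incubation versus DMSO and 10 µM JCP410 controls.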
# DPAP1, sequence (Q8IIJ9 whole entry, looked up): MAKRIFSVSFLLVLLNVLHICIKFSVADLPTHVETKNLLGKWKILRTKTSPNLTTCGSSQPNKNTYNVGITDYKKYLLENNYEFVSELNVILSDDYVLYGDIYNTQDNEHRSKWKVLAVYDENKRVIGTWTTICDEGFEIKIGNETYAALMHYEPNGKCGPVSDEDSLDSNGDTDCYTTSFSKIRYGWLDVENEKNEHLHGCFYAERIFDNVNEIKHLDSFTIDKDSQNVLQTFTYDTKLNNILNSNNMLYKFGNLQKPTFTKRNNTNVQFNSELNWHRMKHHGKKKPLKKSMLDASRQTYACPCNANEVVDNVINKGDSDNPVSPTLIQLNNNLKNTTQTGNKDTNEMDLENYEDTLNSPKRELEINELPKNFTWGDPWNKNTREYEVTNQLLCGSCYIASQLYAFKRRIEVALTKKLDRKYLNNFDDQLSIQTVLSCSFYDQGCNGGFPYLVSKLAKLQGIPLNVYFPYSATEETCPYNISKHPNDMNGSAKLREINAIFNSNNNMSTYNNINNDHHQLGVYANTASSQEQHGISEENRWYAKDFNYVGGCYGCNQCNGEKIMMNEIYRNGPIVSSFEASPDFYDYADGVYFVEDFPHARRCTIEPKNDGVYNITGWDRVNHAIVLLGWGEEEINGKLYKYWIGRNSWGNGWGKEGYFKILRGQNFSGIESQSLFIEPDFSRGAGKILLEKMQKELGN
row,SMILES,% Inhibition @ 10 uM
1,CCC1CCCCN1C(=O)c1cccc([N+](=O)[O-])c1 (stereo not drawn),-0.292%
2,Cc1cc(=O)n2nc(N(C)CC(=O)NCC3CCCO3)sc2n1 (stereo not drawn),3%
3,O=S(=O)(Oc1ccccc1Cl)c1ccc(Cc2ccc(S(=O)(=O)Oc3ccccc3Cl)cc2)cc1,4.82%
4,CCN(CC)C(=O)CN1C(=O)C2(Nc3ccccc3C(=O)N2c2ccc(Cl)cc2)c2ccccc21 (stereo not drawn),-8.43%
5,Cc1c2c(cc3c4c(c(=O)oc13)CCC4)CN(Cc1ccco1)CO2,0.895%
6,COc1cc(OC)cc(C(=O)Nc2ccc(S(=O)(=O)Nc3nccs3)cc2)c1,5.93%
7,Cc1ccc(C2CC(=O)NC(SCC(=O)Nc3ccccc3C(F)(F)F)=C2C#N)cc1 (stereo not drawn),-4.03%
8,COc1cccc(/C=C2/N=C(c3cccc(Cl)c3Cl)OC2=O)c1,-4.38%
9,Cc1ccc(Nc2nc(-c3ccc(S(=O)(=O)N4CCOCC4)cc3)cs2)cc1C,2.09%
10,COc1cc(NC(=O)c2cc3nc(-c4ccco4)cc(C(F)(F)Cl)n3n2)c(C(C)=O)cc1OC,-1.11%
11,CCN(C1CCCCC1)S(=O)(=O)c1ccc(NC(C)=O)cc1,2.37%
12,COc1ccc(CNC(=O)c2cc3c(=O)oc4ccc(C)cc4c3s2)cc1,-3.68%
13,Cc1cccc(-c2nc3c(c(SCC(N)=O)n2)Cc2c(CO)cnc(C)c2O3)c1,1.68%
14,CCN(CC)C(=S)Nc1ccsc1C(=O)OC,2.17%
15,CCN(Cc1ccccc1)C(=O)Cn1ncc2c3ccccc3n(Cc3ccccc3F)c2c1=O,-3.35%
16,COc1ccccc1NC(=O)Nc1cccc(Cl)c1,-3.71%
17,COc1c(Cl)ccc(S(=O)(=O)N2CCN(c3ccccc3)CC2)c1Cl,1.62%
18,COc1ccc(CC(=O)NCc2ccco2)cc1OC,-8.7%
19,CC1=C(C(=O)N(CC2CC=CCC2)CC2CCCO2)C2(CCCCC2)OC1=O (stereo not drawn),-9.55%
20,O=C1CSCc2nc3ccccc3n21,-2.51%
21,NC(=O)C1CCCN(Cc2cccc(Br)c2)C1 (stereo not drawn),-2.34%

row,SMILES,% Inhibition @ 10 uM
1,COCCNC(=O)c1cc(Sc2ccc(Cl)cc2)nc2ccccc12,-5.57%
2,Cc1ccc2nc3c(c(N)c2c1)CCN3c1ccccc1,0.266%
3,CCN(Cc1ccccc1)C(=O)c1ccc(C)c([N+](=O)[O-])c1,2.46%
4,Cc1nn(Cc2ccccc2Cl)c(C)c1NC(=O)c1ccccc1,-3.98%
5,CC(C)(C)NS(=O)(=O)c1ccc(NS(=O)(=O)c2cc(Cl)ccc2Cl)cc1,-2.85%
6,Cc1nn(C(C)C(=O)NCCCN(Cc2ccccc2)C(C)C)c(=O)c2c1sc1ccccc12 (stereo not drawn),1.61%
7,Cc1cc(C(=O)NC2CC2)n(-c2ccccc2)n1,1.55%
8,CCC1CCCCN1C(=O)CSc1nc(O)c2cnn(-c3ccc(Cl)cc3)c2n1 (stereo not drawn),-3.35%
9,CCCCN(C)CCCNC(=O)CSCc1ccccc1Cl,-2.01%
10,Cc1cc(C)n(C(=O)c2ccc(C)c(Br)c2)n1,-5.51%
11,N#C/C(=C\c1cccc([N+](=O)[O-])c1)C(N)=O,-2.72%
12,COc1ccc(C2(C(=O)Nc3ccc(Br)cc3)CCOCC2)cc1,-3.04%
13,COc1ccc(-c2noc(CN(C(=O)c3ccc(C(C)(C)C)cc3)C(C)C)n2)cc1,3.33%
14,Cc1cc(C)nc(NS(=O)(=O)c2ccc(N/C=C3\CCCC3=O)cc2)n1,-4.68%
15,Cc1ccc(CNC(=O)CCc2nnc3n(CC(C)C)c(=O)c4ccccc4n23)cc1,-0.692%
16,C=CCc1ccccc1Oc1cc(OC)nc(N)n1,1.9%
17,Cc1cc(C)c2c(n1)SCC(=O)N2CCCC(=O)NCc1ccc2c(c1)OCO2,-7.93%
18,CN(Cc1ccccc1)C(=O)C1c2ccccc2C(=O)N(C)C1c1c[nH]c2ccccc12 (stereo not drawn),13.8%
19,CC(=O)c1ccc(NC(=O)CN(C(C)=O)c2ccccc2)cc1,2.27%
20,CCOC(=O)/C(C#N)=C/c1cc2c(cc1[N+](=O)[O-])OCO2,-4.02%
21,COC(=O)c1ccc(-c2ccccc2)[nH]1,-3.53%

row,SMILES,% Inhibition @ 10 uM
1,COc1ccc(C(=O)N(Cc2ccc(C(C)(C)C)cc2)Cc2ccco2)cc1,-1.07%
2,N#CC1=C(N)N(c2cccc(C(F)(F)F)c2)C2=C(C(=O)CCC2)C1c1cccs1 (stereo not drawn),-0.305%
3,O=C(NCc1ccco1)c1ccccc1F,3.16%
4,NC(=O)c1c(NC(=O)Nc2ccccc2)sc2c1CCCC2,2.27%
5,CCCC1=C(C(=O)OCC)C(c2cccc(Cl)c2Cl)C(C#N)=C(N)O1 (stereo not drawn),-1.38%
6,CCOc1ccc(-n2cc(-c3ccccc3)c3c(NCCCOC)ncnc32)cc1,-3.74%
7,CCOc1ccccc1CNC(=O)NCc1noc2ccccc12,-2.55%
8,O=[N+]([O-])c1ccc(S(=O)(=O)Nc2ccc(F)cc2)cc1,1.91%
9,CCOc1ccc2nc(NC(=O)C3CCN(S(=O)(=O)c4c[nH]cn4)CC3)sc2c1,2.9%
10,CC(COc1ccc2c(c1)OCO2)NC(=O)c1cnccn1 (stereo not drawn),-2.84%
11,COc1cc(CNC2CCCCC2OC)cc(OC)c1OC (stereo not drawn),1.88%
12,C(=C\c1ccccc1)/CN1CCN(CCCc2ccccc2)CC1,2.7%
13,CC1CC(Nc2ccccc2)c2ccccc2N1C(=O)c1ccco1 (stereo not drawn),-5.96%
14,N#CCC(=O)/N=C/c1ccc(Cl)cc1Cl,1.12%
15,CCOC(=O)N1CCN(C2CCC(C(C)(C)C)CC2)CC1 (stereo not drawn),-1.81%
16,CCOC(=O)c1c(C)[nH]c(C)c1S(=O)(=O)N1CCC(C(=O)NC2CCCCCC2)CC1,-0.695%
17,COc1ccc(N2CCN(C3CC(=O)N(c4ccc5c(c4)OCCO5)C3=O)CC2)cc1 (stereo not drawn),-2.67%
18,O=C1CN(S(=O)(=O)c2ccccc2)CC1NC(=O)[C@H](CS(=O)(=O)Cc1ccccc1)NC(=O)N1CCOCC1 (stereo partly drawn),3.19%
19,CCc1ccc(OCC(O)CNC2CC(C)(C)NC(C)(C)C2)cc1 (stereo not drawn),-3.93%
20,Cc1ccc(C(=O)Nc2ccc(F)cc2F)cc1,3.53%
21,C1=CCC(CN2CCCCC2c2cccnc2)CC1 (stereo not drawn),-3.27%
